Some values that stand alone complete this part of the results.
Assay: TGA and DSC characterization
Type: physicochemical
Conditions: successive thermal events listed per polymorph
Experimental: The PXRD diffraction patterns were obtained on X-ray powder diffraction PANalytical X′pert Pro equipped with X′Celerator, in a measurement range between 3 and 40 2 theta. All the DSC experiments were performed with a DSC 7 Perkin Elmer instrument in a temperature range between 25° C. and 250° C. with a heating rate of 10° C./min.
All the TGA experiments were conducted with a TGA 7 Perkin Elmer instrument in a temperature range between 39° C. and 310° C. with a heating rate of 10° C./min.
PXRD, DSC, TGA and IR analyses were obtained for Bupropion Hydrobromide Polymorph Form I, Form II, Form III, Form IV, Form V, Form VI, and Form VII. PXRD analyses were obtained for the amorphous form. With respect to the PXRD analyses, the Peak List is shown for Form I, Form II, Form III, Form IV, Form V, Form VI, Form VII and the amorphous form in Table 56, Table 57, Table 58, Table 59, Table 60, Table 61, Table 62 and Table 63 respectively.

Structure (SMILES) | DSC (onset ° C.) (first DSC thermal event) [°C] | DSC (onset ° C.) (second DSC thermal event) [°C]
Br.CC(NC(C)(C)C)C(=O)c1cccc(Cl)c1 (single isomer, unassigned) [Form II] | 194.20 | 236.65
Br.CC(NC(C)(C)C)C(=O)c1cccc(Cl)c1 (stereo not shown) [Form IV] | 149.89 | 233.14

— patent publication US8604085B2, “Bupropion hydrobromide polymorphs” (Valeant International Bermuda, priority 2008, dated 2013)
